Results reported in the supplement of paper PMC11417369.
The other results are listed elsewhere or left out.

What follows are sequences tested on PfAP2-HC AP2 domain (GST-tagged) (assay: gcPBM binding intensity (ln(normalized median fluorescence intensity)); higher = stronger DNA binding).
In short: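 Alexa488 anti-GST antibody, scanned at 488 nm, detected GST-tagged P. falciparum DNA-binding domains that had been expressed in E. coli and incubated for 1 h on an Agilent 4 × 180k array. The array carried primer-extended double-stranded 36-bp intergenic genomic probes and negative controls. Binding intensity is the highest Masliner-normalised natural-log median intensity across replicate spots of either orientation of each probe.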

Going from “TTATATATAGAATAAACATGCATTTGTATATGAATA [TGCATGCA_site604]” to “TTTTTTTTTTTTTTTACACACTATAGGGAAAAAAAA [CACACA_site1916]”, the “gcPBM binding intensity (ln)” value falls from 9.58 to 9.27.

First: TGTATATAAACAAGGGGTACAATAATATAAATAAAT [XGTACX_site8675]
Second: TCATATTAATTTGATAGTACATATACTTTGAAGTCC [XGTACX_site3767]
The “gcPBM binding intensity (ln)” value of the first is higher: 9.89 for the first, 9.5 for the second.

Compared with “TCACATACATTACTTACACACCATATTAATATATAC [CACACA_site8047]”, “AATAAAAAATAAAAAATAAACAGTATACATATATAT [GTGCAC_negctrl_site31]” is lower in “gcPBM binding intensity (ln)” value: 9.94 for the first, 9.79 for the second.

Going from “AACAGACATAGACACACACACATATATTTATTTATA [CACACA_site7571]” to “ATGCAAATAATATAAAGTACACAACATCGCCCAAAG [XGTACX_site1825]”, the “gcPBM binding intensity (ln)” value falls from 10.4 to 10.

Going from “TTTTTTAAATTTTGAATTATAACTACATTAAAGAAA [GTGCAC_negctrl_site279]” to “CATTATGTCATAAATGCACACATATATATATACATA [CACACA_site8454]”, the “gcPBM binding intensity (ln)” value rises from 8.97 to 9.73.

First: TATTTAAAAGTATATACACACAACTGGAATGAAAAG [CACACA_site4126]
Second: ATTATAACACCTCCCCCCCTTTTTTTATGAAGACCA [CACACA_negctrl_site1043]
The “gcPBM binding intensity (ln)” value of the first is lower: 9.98 for the first, 10.1 for the second.

Going from “TATTTTAATCGTAAGTGTACTCTTTTAAGTATATGT [XGTACX_site8591]” to “TATGTATGCCCTAATGCATGTGAACAAAATAATATA [TGCATGCA_site407]”, the “gcPBM binding intensity (ln)” value falls from 9.64 to 9.56.

Compared with “AAAATTAAAAAAATAAATACATTATATAATTAAAAA [CACACA_negctrl_site1426]”, “TTTATTAGATAACGATAAACGAAAAAAAAAAAATAA [GTGCAC_negctrl_site81]” is lower in “gcPBM binding intensity (ln)” value: 9.52 for the first, 9.4 for the second.

Going from “ATAATATAAATAAAGCGTACTTAATTTTATATATAT [XGTACX_site4626]” to “TGTTGTAACAAAAGTACACACACATTTCTATAAATT [CACACA_site8894]”, the “gcPBM binding intensity (ln)” value rises from 9.6 to 9.86.

Compared with “ATTACATAACAATATACACACTATTGATTAAAGAGA [CACACA_site5602]”, “CTATAAATGAATGTTTGTACTTAATAATAAAAGAAA [XGTACX_site3170]” is lower in “gcPBM binding intensity (ln)” value: 9.82 for the first, 9.49 for the second.

First: TTTTTTACAAATGATATCATTTCTTTAAATATTAAA [TGCATGCA_negctrl_site279]
Second: TATTTTTTTCATAACAGTACAATAATATATATTTTT [XGTACX_site5739]
The “gcPBM binding intensity (ln)” value of the first is lower: 9.59 for the first, 9.61 for the second.

Going from “GCACACACAAAAAAAGCATGCATACTAGCTATTTTT [TGCATGCA_site18]” to “AATCAAAAAAAATGTTGTACGCCTAATTATAATTAA [XGTACX_site8906]”, the “gcPBM binding intensity (ln)” value falls from 10 to 9.52.

Going from “AATGAAATAAATAAGGGTACACATAAATATATATAT [XGTACX_site7006]” to “AAAAAACACCCATACACACACACACCGATATATATA [CACACA_site5808]”, the “gcPBM binding intensity (ln)” value rises from 9.83 to 11.

Going from “TATTCGTGCAATAATAGTACACTTATAAATTATTCA [XGTACX_site8993]” to “AATGGGGAAGGTTCTACACACAACGCAAATGCCTTA [CACACA_site2758]”, the “gcPBM binding intensity (ln)” value rises from 9.52 to 9.87.

Compared with “TATAAATAATGTTAAACACACATACCGATATATAAT [CACACA_site5499]”, “AAATTATTATGTATTTGTACACATAAGAATATAAAA [XGTACX_site6841]” is higher in “gcPBM binding intensity (ln)” value: 9.82 for the first, 10 for the second.

First: AGAGAAAGAAAGAAATGTACAAATACCTACACACAT [XGTACX_site3140]
Second: TCAGTTAATGTATATGTACACACGGTGAGTATATAT [CACACA_site3346]
The “gcPBM binding intensity (ln)” value of the first is higher: 10.2 for the first, 9.76 for the second.

Compared with “ATCCACAAAATAGGATGTACATATAAAATAAATAAA [XGTACX_site5362]”, “TATGGAATAATACGCGTACACACATATATATATTAA [CACACA_site132]” is higher in “gcPBM binding intensity (ln)” value: 9.75 for the first, 9.87 for the second.

First: TTTATAAGAATTACTAGTACATATAAGGAATTATAT [XGTACX_site3953]
Second: CATTTTTTATAATAATGTACATGTATTAAAAAAAAA [XGTACX_site6390]
The “gcPBM binding intensity (ln)” value of the first is higher: 9.53 for the first, 9.31 for the second.

First: TTATAAATTTAAAGTAGTACTATACTACTATTTTAT [XGTACX_site3038]
Second: TATATATCAAAAATATGTACACAGAAATATATATTA [XGTACX_site6997]
The “gcPBM binding intensity (ln)” value of the first is lower: 9.6 for the first, 9.71 for the second.

Going from “ACATATAAAATATATACACACATATAAATACATTAA [CACACA_site3867]” to “TTGCAATAATGTTGCACACTAAATAGTCATATATAA [CACACA_site263]”, the “gcPBM binding intensity (ln)” value falls from 9.97 to 9.63.

First: ATATAATATTACAAATGTACTTTAAAAAATTAGGAG [XGTACX_site3897]
Second: TTGTTTCAAGAAAAAATCGAAAAACATAGAAAAAAA [XGTACX_negctrl_site615]
The “gcPBM binding intensity (ln)” value of the first is lower: 9.33 for the first, 9.47 for the second.

First: ATATTTTTGTTCAGGAGTACAGTTCAAGATGAAAAT [XGTACX_site4178]
Second: ATAACATAATAGCAACAATTTATTTCCTCTATAACA [CACACA_negctrl_site243]
The “gcPBM binding intensity (ln)” value of the first is higher: 9.66 for the first, 9.63 for the second.

First: TTTTTTATATATGTGTGTGTGTGTGTGTCAAGTTTA [GTGCAC_negctrl_site460]
Second: TTTGGGATATTTACAGTGCAAAGATATTTTTATAAT
The “gcPBM binding intensity (ln)” value of the first is higher: 11.1 for the first, 9.45 for the second.

Compared with “TTTTAGTGAAATGAGTGTACATTATATATTTTTTTT [XGTACX_site4892]”, “ATTCTATATATATAAACACACAAATATTTTTATATA [CACACA_site1677]” is higher in “gcPBM binding intensity (ln)” value: 9.54 for the first, 9.65 for the second.

Compared with “AAGACTAATCTAGGTAGTACTTATATATCTTTATTT [XGTACX_site4572]”, “ATATAAGGAAGGGATGCACACAAAAGGGTACATAAG [CACACA_site9328]” is higher in “gcPBM binding intensity (ln)” value: 9.68 for the first, 10.1 for the second.

First: AAAAATATAAAGAAATGTACTTATAAAAATCCCTAC [XGTACX_site3824]
Second: TACACCAGTTGTGGGAGTACACAAAAAAAGGGAAAA [XGTACX_site6047]
The “gcPBM binding intensity (ln)” value of the first is lower: 9.68 for the first, 9.77 for the second.

First: TTCTGTTCAAAATATGAACACACACCGATATATATA [CACACA_site8637]
Second: CTTTATCTTTTTCATTGTACTTTATTTTAAAATTAA [XGTACX_site4858]
The “gcPBM binding intensity (ln)” value of the first is higher: 9.91 for the first, 9.73 for the second.

Going from “TGCAGTCTGGAGAAAAGTACACAGTATCTGGTAGCT [XGTACX_site2013]” to “AATATCATAAAATAAAGTACAAATATATATTGAAAA [XGTACX_site8813]”, the “gcPBM binding intensity (ln)” value rises from 9.58 to 9.8.
